Test results taken from article PMC5700166.
The entries are a selection whose mix differs from that of the whole data set. The list includes weakly bound sequences.

Experiments:
Assay in all cases: protein-binding microarray (PBM)
Conditions in all cases: PBM: ~300 nM protein, 6 mM HEPES pH 7.8, 80 mM KCl, 0.5 mM EDTA, 0.5 mM EGTA, 6% glycerol, 35 ng/ul poly-dIdC, 1% milk, 1 h, room temperature; Ap Aiptasia and Nv Nematostella (sea anemones) / Co Capsaspora / Aq Amphimedon (sponge) / Dm Drosophila / Hu human; RHD is the Rel homology domain; high values mean tight binding; most listed sequences are background and not binding sites; double strand, one strand shown
[1] = target: T1, GST-Ap-NF-kB RHD (UniProt A0A913YAJ5)
T1 sequence: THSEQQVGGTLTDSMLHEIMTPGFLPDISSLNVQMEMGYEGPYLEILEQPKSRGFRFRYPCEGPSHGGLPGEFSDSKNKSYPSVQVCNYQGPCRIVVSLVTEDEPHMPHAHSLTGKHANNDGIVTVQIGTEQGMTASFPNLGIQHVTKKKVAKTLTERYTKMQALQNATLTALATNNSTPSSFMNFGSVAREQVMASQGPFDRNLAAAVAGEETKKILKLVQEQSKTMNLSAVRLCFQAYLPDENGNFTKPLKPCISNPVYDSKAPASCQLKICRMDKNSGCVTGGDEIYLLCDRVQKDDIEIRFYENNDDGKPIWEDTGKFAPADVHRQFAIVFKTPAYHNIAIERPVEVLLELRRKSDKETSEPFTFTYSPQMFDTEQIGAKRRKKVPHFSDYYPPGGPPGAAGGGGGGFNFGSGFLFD

[2] = target: T2, GST-Nv-NF-kB (Cys allele) (UniProt E5G601)
T2 sequence: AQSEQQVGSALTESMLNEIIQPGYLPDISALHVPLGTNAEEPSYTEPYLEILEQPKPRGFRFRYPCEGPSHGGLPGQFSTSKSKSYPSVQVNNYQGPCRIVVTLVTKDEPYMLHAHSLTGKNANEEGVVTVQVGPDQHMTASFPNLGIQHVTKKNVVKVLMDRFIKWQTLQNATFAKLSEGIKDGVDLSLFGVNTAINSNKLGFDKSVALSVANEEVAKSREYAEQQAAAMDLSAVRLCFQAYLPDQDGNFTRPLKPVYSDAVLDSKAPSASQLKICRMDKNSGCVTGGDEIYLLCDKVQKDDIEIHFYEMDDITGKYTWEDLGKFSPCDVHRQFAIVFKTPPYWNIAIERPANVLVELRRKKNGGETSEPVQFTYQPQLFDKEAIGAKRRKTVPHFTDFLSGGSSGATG

[3] = target: T3, GST-Co-NF-kB (UniProt F1ARL5)
T3 sequence: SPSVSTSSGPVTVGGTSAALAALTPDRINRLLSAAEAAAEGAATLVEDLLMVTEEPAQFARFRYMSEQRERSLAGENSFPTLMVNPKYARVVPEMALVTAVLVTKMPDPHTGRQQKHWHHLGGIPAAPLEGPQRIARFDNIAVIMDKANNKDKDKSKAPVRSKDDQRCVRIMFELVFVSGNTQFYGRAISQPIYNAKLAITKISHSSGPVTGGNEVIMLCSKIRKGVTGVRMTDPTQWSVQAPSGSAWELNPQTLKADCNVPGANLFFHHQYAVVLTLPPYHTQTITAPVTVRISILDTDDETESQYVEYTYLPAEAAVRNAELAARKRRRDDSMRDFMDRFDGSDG

[4] = target: T4, GST-Dm-Relish (UniProt Q94527)
T4 sequence: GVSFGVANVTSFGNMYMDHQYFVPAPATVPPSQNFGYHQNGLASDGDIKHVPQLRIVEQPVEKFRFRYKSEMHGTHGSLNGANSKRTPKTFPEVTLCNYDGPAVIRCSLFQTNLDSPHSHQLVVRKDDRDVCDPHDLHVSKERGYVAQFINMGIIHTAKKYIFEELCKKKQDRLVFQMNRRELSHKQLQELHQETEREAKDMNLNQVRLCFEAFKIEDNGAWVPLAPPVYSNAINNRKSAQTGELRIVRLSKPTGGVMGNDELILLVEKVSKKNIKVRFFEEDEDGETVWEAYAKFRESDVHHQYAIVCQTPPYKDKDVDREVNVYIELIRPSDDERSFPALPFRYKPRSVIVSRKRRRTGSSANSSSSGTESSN

[5] = target: T5, GST-Aq-NF-kB (UniProt A9Y5G7)
T5 sequence: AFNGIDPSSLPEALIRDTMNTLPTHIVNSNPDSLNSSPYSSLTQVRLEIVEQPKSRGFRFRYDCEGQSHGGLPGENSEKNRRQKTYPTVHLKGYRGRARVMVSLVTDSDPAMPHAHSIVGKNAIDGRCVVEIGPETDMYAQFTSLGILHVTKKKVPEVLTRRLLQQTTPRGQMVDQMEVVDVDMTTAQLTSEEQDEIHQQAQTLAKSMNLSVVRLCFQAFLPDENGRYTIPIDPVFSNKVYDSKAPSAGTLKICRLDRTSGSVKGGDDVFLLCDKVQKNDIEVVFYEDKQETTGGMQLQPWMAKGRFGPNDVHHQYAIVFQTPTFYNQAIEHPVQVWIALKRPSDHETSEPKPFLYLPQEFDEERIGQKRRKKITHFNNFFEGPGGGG

| Sequence | binding signal [1] [z-score] | binding signal [2] [z-score] | binding signal [3] [z-score] | binding signal [4] [z-score] | binding signal [5] [z-score] |
| --- | --- | --- | --- | --- | --- |
| CCGATTAACATCAGGCTTTTCCATGATGTTAATCGGGTCTTGATTCGCTTGACGCTGCTG | -0.187 | 0.455 | 0.00392 | 0.0236 | 0.65 |
| CCGATTAACATCAAAATTCCAAATGATGTTAATCGGGTCTTGATTCGCTTGACGCTGCTG | -0.395 | 0.225 | -0.149 | 0.764 | 0.548 |
| CCGATTAACATCAGGGCTATGGATGATGTTAATCGGGTCTTGATTCGCTTGACGCTGCTG | 0.388 | -0.175 | 0.603 | -0.164 | -0.229 |
| CCGATTAACATCAGCGTGGGAACTGATGTTAATCGGGTCTTGATTCGCTTGACGCTGCTG | -0.135 | 0.62 | 0.726 | 0.103 | 0.354 |
| CCGATTAACATCACTGGAAATTCTGATGTTAATCGGGTCTTGATTCGCTTGACGCTGCTG | 0.364 | -0.0237 | 0.746 | 1.59 | 0.983 |
| CCGATTAACATCACTGCTACGTATGATGTTAATCGGGTCTTGATTCGCTTGACGCTGCTG | -0.596 | -0.889 | -0.36 | -0.0597 | -0.21 |
| CCGATTAACATCACGCTCAGTCCTGATGTTAATCGGGTCTTGATTCGCTTGACGCTGCTG | 0.104 | -0.572 | -0.93 | -0.247 | -0.247 |
| CCGATTAACATCATTATATCTCATGATGTTAATCGGGTCTTGATTCGCTTGACGCTGCTG | -1.02 | 0.011 | 0.152 | -0.145 | -0.27 |
| CCGATTAACATCAAGGCGCGGTCTGATGTTAATCGGGTCTTGATTCGCTTGACGCTGCTG | 0.268 | -0.93 | -0.856 | -0.661 | -0.384 |
| CCGATTAACATCATTAATTCGGATGATGTTAATCGGGTCTTGATTCGCTTGACGCTGCTG | -0.903 | -0.498 | -1.25 | -0.68 | -0.387 |
| CCGATTAACATCACGTGAATTCCTGATGTTAATCGGGTCTTGATTCGCTTGACGCTGCTG | 0.191 | -0.598 | 0.37 | 2.84 | 0.775 |
| CCGATTAACATCATTCGACATGTTGATGTTAATCGGGTCTTGATTCGCTTGACGCTGCTG | -0.512 | -0.384 | -0.438 | -0.646 | -0.634 |
| CCGATTAACATCAGACCTGTGCCTGATGTTAATCGGGTCTTGATTCGCTTGACGCTGCTG | 0.047 | -1.07 | -1.16 | -1.34 | -0.555 |
| CCGATTAACATCAACAAACCATTTGATGTTAATCGGGTCTTGATTCGCTTGACGCTGCTG | -0.479 | -0.129 | 0.207 | -0.495 | -0.328 |
| CCGATTAACATCACAGTAACGGTTGATGTTAATCGGGTCTTGATTCGCTTGACGCTGCTG | -0.159 | -0.523 | 0.133 | -0.0235 | -0.281 |
| CCGATTAACATCACGGAAAATTCTGATGTTAATCGGGTCTTGATTCGCTTGACGCTGCTG | 0.0473 | -0.0525 | 0.523 | -0.0744 | 1.15 |
| CCGATTAACATCACAACCTGGGCTGATGTTAATCGGGTCTTGATTCGCTTGACGCTGCTG | 0.293 | 0.108 | 0.31 | -0.189 | -0.213 |
| CCGATTAACATCACGTGAGCGGCTGATGTTAATCGGGTCTTGATTCGCTTGACGCTGCTG | 0.0515 | -0.301 | -0.293 | -0.235 | -0.415 |
| CCGATTAACATCAGTGTCCTGCATGATGTTAATCGGGTCTTGATTCGCTTGACGCTGCTG | 0.392 | -0.0101 | -0.611 | -0.495 | -0.372 |
| CCGATTAACATCAGGGCTGGACATGATGTTAATCGGGTCTTGATTCGCTTGACGCTGCTG | -0.121 | -0.257 | -0.497 | -0.795 | -0.331 |
| CCGATTAACATCATTAGATGGCTTGATGTTAATCGGGTCTTGATTCGCTTGACGCTGCTG | -0.235 | -0.676 | -0.178 | -1.11 | -0.357 |
| CCGATTAACATCATCTGCCTTTTTGATGTTAATCGGGTCTTGATTCGCTTGACGCTGCTG | -0.132 | 0.0146 | 0.174 | -0.479 | -0.214 |
| CCGATTAACATCACGAACGGTAGTGATGTTAATCGGGTCTTGATTCGCTTGACGCTGCTG | 0.408 | 0.258 | 0.188 | -0.109 | 0.0422 |
| CCGATTAACATCATAAAAGTTCTTGATGTTAATCGGGTCTTGATTCGCTTGACGCTGCTG | -0.582 | 0.0857 | -0.0929 | 0.299 | 0.196 |
| CCGATTAACATCAAAAGGAAATTTGATGTTAATCGGGTCTTGATTCGCTTGACGCTGCTG | -0.202 | 0.847 | 0.0181 | 0.802 | 0.597 |
